This note sets out measurements from the supplement of paper PMC8007513.

Counter-ions that a name gives are not always drawn. ± gives the standard error. Hit rate of the full screen: of about 1,300 compounds, about 75 (6%) showed an effect of 50% or more. This is one part of the list.

This experiment relates to Trichoderma virens ATCC 9645. The experiment in a line: growth yield (OD600) relative to untreated control; higher = less growth inhibition. As to conditions: compound concentration: 100 uM. The method in brief: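 Library compounds (100 μM final), with or without a co-applied biocide (200 ng ml^−1), were added to 100 μl aliquots of Trichoderma virens ATCC 9645 spores at 15,000 spores ml^−1 in potato dextrose broth. Cultures were grown at 30 °C in 96-well plates, and OD600 was measured at 40 h and 72 h. Each growth value is a mean of duplicate screens, expressed relative to the control with neither agent.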

Take `c1ccc(CN(CC2=NCCN2)c2ccccc2)cc1` [Antazoline hydrochloride]: the growth yield reads like this: (40 h) 99.12 ± 0.95%; (72 h) 101.3 ± 0.42%.
The matching figures for `CN(C)CC/C=C1/c2ccccc2COc2ccc(CC(=O)O)cc21` [Olopatadine hydrochloride]: 103.9 ± 0.32% and 102.8 ± 0.42%.
On the same counts, the results for `CC(C(=O)O)c1ccc(C(=O)c2ccccc2)s1` (stereo unspecified) [Tiaprofenic acid] are 93.88 ± 0.79% and 87.4 ± 1.4%.
On to `CC(=O)N(CC(O)CN(C(C)=O)c1c(I)c(C(=O)NCC(O)CO)c(I)c(C(=O)NCC(O)CO)c1I)c1c(I)c(C(=O)NCC(O)CO)c(I)c(C(=O)NCC(O)CO)c1I` (stereo unspecified) [Iodixanol], for which the growth yield is, setting by setting: (40 h) 99.4 ± 2.5%; (72 h) 96.8 ± 0.94%.
As to `N=C(N)NCCN1CCCCCCC1` [Guanethidine sulfate], the growth yield reads like this: (40 h) 99.6 ± 1.1%; (72 h) 100.79 ± 0.1%.
The matching figures for `C#C[C@]1(O)CC[C@H]2[C@@H]3CCC4=CC(=O)CC[C@@H]4[C@H]3CC[C@@]21CC` [Norgestrel-(-)-D]: 101 ± 2.1% and 96.28 ± 0.63%.
The matching figures for `CC(CN(C)C)CN1c2ccccc2Sc2ccccc21` (stereo unspecified) [Trimeprazine tartrate]: 87.5 ± 2.4% and 96.9 ± 1.9%.
The matching figures for `CC1(C)[C@@H](OC(=O)CCC(=O)O)CC[C@]2(C)[C@H]3C(=O)C=C4[C@@H]5C[C@@](C)(C(=O)O)CC[C@]5(C)CC[C@@]4(C)[C@]3(C)CC[C@@H]12` [Carbenoxolone disodium salt]: 95 ± 4.1% and 94.6 ± 2.1%.
Consider `C=CCOC(Cn1ccnc1)c1ccc(Cl)cc1Cl` (stereo unspecified) [Enilconazole], for which the growth yield reads like this: (40 h) 3.49%; (72 h) 3.04 ± 0.32%.
The matching figures for `CC[C@@H](CO)NCCN[C@@H](CC)CO` [Ethambutol dihydrochloride]: 105 ± 3.3% and 103 ± 2.3%.
The matching figures for `CC(CN(C)C)C(C)(O)Cc1ccc(Cl)cc1` (stereo unspecified) [Clobutinol hydrochloride]: 105 ± 3.5% and 104 ± 2.5%.
On the same counts, the results for `C[C@]1(Cn2ccnn2)[C@H](C(=O)O)N2C(=O)C[C@H]2S1(=O)=O` [Tazobactam] are 98.96 ± 0.79% and 96.8 ± 1.4%.
Take `CC(=O)OCC(=O)[C@@]1(OC(C)=O)[C@@H](C)C[C@H]2[C@@H]3C[C@H](F)C4=CC(=O)C=C[C@]4(C)[C@@]3(F)[C@@H](O)C[C@@]21C` [Diflorasone Diacetate]: the growth yield runs as follows: (40 h) 106 ± 5.9%; (72 h) 107 ± 6.7%.
On the same counts, the results for `CCCOc1ccc(C(=O)OCCN(CC)CC)cc1N` [Proparacaine hydrochloride] are 101 ± 2.9% and 99.2 ± 2.9%.
On the same counts, the results for `CCCCC1(COC(=O)CCC(=O)O)C(=O)N(c2ccccc2)N(c2ccccc2)C1=O` [Suxibuzone] are 95.94 ± 1.4e-14% and 93.13 ± 0.63%.
On the same counts, the results for `COc1cc(NC(C)CCCN)c2ncccc2c1` (stereo unspecified) [Primaquine diphosphate] are 108 ± 9.4% and 111 ± 8.4%.
With `CCCCNc1c(C(=O)OCC)c(C)nc2c1cnn2CC` [Tracazolate hydrochloride], the growth yield is, setting by setting: (40 h) 38.1 ± 16%; (72 h) 60.5 ± 13%.
On the same counts, the results for `COc1cc(-c2ccc(=O)[nH]n2)ccc1OC(F)F` [Zardaverine] are 97.1 ± 6.8% and 96.8 ± 5.1%.
The matching figures for `CC/C(=C(/CC)c1ccc(O)cc1)c1ccc(O)cc1` [Diethylstilbestrol]: 81.6 ± 3.2% and 77.3 ± 3.9%.
On to `CC1=C(/C=C/C(C)=C/C=C/C(C)=C\C(=O)O)C(C)(C)CCC1` [Isotretinoin], for which the growth yield turned out to be 99.4 ± 7.3% (40 h) and 96.7 ± 6.9% (72 h).
The matching figures for `CSc1ccc2c(c1)N(CCC1CCCCN1C)c1ccccc1S2` (stereo unspecified) [Thioridazine hydrochloride]: 53.8 ± 6.2% and 83 ± 2.6%.
The matching figures for `NC(N)=Nc1nc(CSCC/C(N)=N/S(N)(=O)=O)cs1` [Famotidine]: 103 ± 1.9% and 101 ± 1.3%.
On the same counts, the results for `Cc1cc(-c2ccccc2)nnc1NCCN1CCOCC1` [Minaprine dihydrochloride] are 100 ± 7.5% and 98.7 ± 3.7%.
As for `CN(C)[C@@H]1C(O)=C(C(N)=O)C(=O)[C@@]2(O)C(O)=C3C(=O)c4c(O)cccc4[C@@](C)(O)[C@H]3[C@H](O)[C@@H]12` [Oxytetracycline dihydrate], the growth yield runs as follows: (40 h) 76.2 ± 4.5%; (72 h) 67.4 ± 4.9%.
The matching figures for `Cc1ccsc1/C=C/C1=NCCCN1C` [Morantel tartrate]: 101.2 ± 0.48% and 100 ± 0.63%.
The matching figures for `CN(C)c1ccc(O)c2c1C[C@H]1C[C@H]3[C@H](N(C)C)C(O)=C(C(N)=O)C(=O)[C@@]3(O)C(O)=C1C2=O` [Minocycline hydrochloride]: 95.3 ± 0.64% and 97.4 ± 2%.
The matching figures for `Nc1nc(NC2CC2)c2ncn([C@H]3C=C[C@@H](CO)C3)c2n1` [Abacavir Sulfate]: 97.2 ± 2.5% and 98.48 ± 0.1%.
With `CCN(CC)CCNc1ccc(CO)c2sc3ccccc3c(=O)c12` [Hycanthone], the growth yield is, setting by setting: (40 h) 118 ± 4.1%; (72 h) 114.7 ± 0.63%.
On the same counts, the results for `CN(Cc1cnc2nc(N)nc(N)c2n1)c1ccc(C(=O)N[C@@H](CCC(=O)O)C(=O)O)cc1` (racemic) [Amethopterin (R,S)] are 92.4 ± 0.95% and 94.08 ± 0.1%.
Regarding `O=C(COc1ccc(Cl)cc1)N1CCN(Cc2ccc3c(c2)OCO3)CC1` [Fipexide hydrochloride], the growth yield is, setting by setting: (40 h) 94.8 ± 1.4%; (72 h) 102 ± 1.1%.
The matching figures for `CNC(C)CCC=C(C)C` (stereo unspecified) [Isometheptene mucate]: 99.1 ± 3.8% and 96.2 ± 4.3%.
The matching figures for `CCOC(=O)c1ccc(N)cc1` [Benzocaine]: 91.33 ± 0.48% and 86.6 ± 1.5%.
The matching figures for `OC(CCCN1CCCCC1)(c1ccccc1)c1ccccc1` [Diphenidol hydrochloride]: 95.14 ± 0.79% and 98.6 ± 3.1%.
